In the assay the test system is Plasmodium falciparum. Kind of assay: Primary screen in NF54 nanoGlo assay, in single point, at 2uM, 72h; a lower Z score goes with more inhibition. Conditions: timepoint 72 hour. Format: functional, Erythrocyte.

Hit rate of the full screen: of about 150,000 compounds, about 540 (0.36%) showed an effect of 50% or more. Some of the results follow.

One may read the % Inhibition as the drop in the measured response relative to a control, in per cent. Regarding `O=C(CS(=O)(=O)c1ccc2c(c1)OCCCO2)NC1CCCC1`, the “% Inhibition” value is given as -29% and the Z score worked out at 3.42.

On to `Cc1nc(-c2ccc(C)c(-n3cc(C(=O)Nc4cc(Cl)ccc4C)c(C)n3)c2)no1`, for which the “% Inhibition” value turned out to be 7% and the Z score is given as -0.79.

For the compound `CCCc1ncncc1C(=O)NC[C@H]1CCN(c2ccccc2C)C1`, the “% Inhibition” value is on record as -3% and the Z score was 0.39.

Regarding `Cc1n[nH]c(C)c1CC(C)C(=O)NC1CC1c1ccc(F)cc1F` (stereo unspecified), the “% Inhibition” value was -12% and the Z score is 1.09.

As for `c1cc(NC2CCOCC2)nc(C2CC2)n1`, the “% Inhibition” value is -5% and the Z score is listed as 0.57.

Consider `CCC[C@H](NCCCN1C(=O)COc2ccccc21)C1CC1`, for which the “% Inhibition” value is recorded as -15% and the Z score was 1.3.

In the case of `CN1C(=O)N(c2ccccn2)C(=O)[C@H]1c1cccc(Br)c1`, the “% Inhibition” value is listed as -9% and the Z score worked out at 1.14.

In the case of `Cc1cc(C(=O)N(C)Cc2cnn(C)c2)no1`, the “% Inhibition” value is listed as -6% and the Z score turned out to be 0.94.

Regarding `CC1(C)COCCN1C(=O)CCn1nnc2ccccc2c1=O`, the “% Inhibition” value is recorded as -6% and the Z score is reported as 0.67.

As to `CC1(C)C[C@@](C)(c2ccccc2)c2ccccc2N1`, the “% Inhibition” value is -9% and the Z score was determined as 1.05.

As to `O=c1[nH]c(-c2nc(-c3cnccn3)no2)cc2ccccc12`, the “% Inhibition” value is on record as 2% and the Z score was -0.24.

Consider `Cc1cnc(C(C)NC(=O)N2CCOC(Cn3cccn3)C2)s1` (stereo unspecified), for which the “% Inhibition” value was -3% and the Z score worked out at 0.37.

As to `CC(C)n1c(=O)c(NCc2ccc(F)c(Cl)c2)nc2ccncc21`, the “% Inhibition” value is on record as 9% and the Z score is on record as -1.41.

For the compound `O=C(c1cnn2c1OCCC2)N(CCO)c1ccccc1`, the “% Inhibition” value is reported as -8% and the Z score was 1.25.

Regarding `COc1ccc2[nH]cc([C@@H](CC(=O)NCc3ccco3)C(C)C)c2c1`, the “% Inhibition” value was -9% and the Z score came to 1.12.

With `CC(C)c1cc(C(=O)N2CCCCC[C@H]2c2c(Cl)cnn2C)no1`, the “% Inhibition” value is reported as -17% and the Z score came to 1.48.

As for `Cc1cc(NCCc2ncccc2F)ncn1`, the “% Inhibition” value was -7% and the Z score came out at 0.84.

For the compound `CO[C@H]1CCCN(C(=O)c2cn(C)c(C)cc2=O)C1`, the “% Inhibition” value is -16% and the Z score is given as 1.59.

In the case of `COc1ccc(S(=O)(=O)[C@@H](CNC(=O)c2ccc(Br)cc2)c2cccnc2)cc1`, the “% Inhibition” value was -18% and the Z score was 3.39.

In the case of `Cc1nc(N)nc(N(C)CCc2ccncc2)c1CCC(=O)O`, the “% Inhibition” value came to 5% and the Z score is listed as -0.92.

Consider `O=C1CCC2(CCN(C(=O)c3cccnc3)CC2)CN1CCc1ccncc1`, for which the “% Inhibition” value turned out to be 3% and the Z score was -0.36.

Take `Cc1n[nH]c(CNC(=O)Nc2sc(C)nc2CC(C)C)n1`: the “% Inhibition” value is -2% and the Z score is reported as 0.26.

Take `Cc1ncccc1Oc1ncnc(N[C@H]2COC[C@@H]2O)c1C`: the “% Inhibition” value is -8% and the Z score turned out to be 1.07.

Turning to `CN(C)c1cc(NC(=O)CCOC2CCOCC2)ncn1`, the “% Inhibition” value is -5% and the Z score is on record as 1.04.

`COc1ccc(CCN=C(N)NS(=O)(=O)c2ccc(F)cc2)cc1OC`: the “% Inhibition” value is given as -4% and the Z score worked out at 0.72.

In the case of `CC(C)c1nnc(CNc2ncc(Cl)cn2)n1C`, the “% Inhibition” value turned out to be 0% and the Z score was -0.03.

With `COc1ccc(F)cc1S(=O)(=O)N1CC2(C[C@H](CC(=O)NCC3CC3)CO2)C1`, the “% Inhibition” value was -2% and the Z score is on record as 0.34.

For the compound `Cc1ccsc1CN1CC[C@@]2(CCCN(Cc3cccnc3)C2=O)C1`, the “% Inhibition” value is -3% and the Z score was found to be 0.47.

As to `Cc1nc2c([nH]1)CN(C[C@@H]1CCCN3CCCC[C@H]13)CC2`, the “% Inhibition” value was determined as 3% and the Z score is -0.62.

Consider `CC(C)(O)CN1CCN(C(=O)CC[C@H]2CCCO2)CC1`, for which the “% Inhibition” value is reported as -10% and the Z score is reported as 0.86.

Take `COCCN1CCN(c2nc(-c3cccc(F)c3)c3c(N)n(-c4ccc(F)cc4)nc3n2)CC1`: the “% Inhibition” value is recorded as -2% and the Z score turned out to be 0.37.

Turning to `COc1ccc(N(C)S(=O)(=O)c2cccc3nonc23)cc1`, the “% Inhibition” value is recorded as -6% and the Z score came to 0.95.

Consider `CC(CC(=O)O)(C(=O)N1CC[C@H](OC(F)F)C1)c1ccc(F)cc1` (stereo partly specified), for which the “% Inhibition” value was 0% and the Z score is -0.03.

For `CCOC(=O)c1coc(N2CCC(OCc3cccnc3)CC2)n1`, the “% Inhibition” value stood at 0% and the Z score turned out to be 0.02.

For `Cc1oc(-c2cc(C(F)(F)F)on2)cc1S(=O)(=O)N1CCC[C@H](c2cc[nH]n2)C1`, the “% Inhibition” value is -6% and the Z score amounted to 0.73.

For `COc1ccc(CN(C)Cc2n[nH]c3c2CCC3)cn1`, the “% Inhibition” value was -2% and the Z score stood at 0.34.

Consider `COC(c1ccccc1F)C(C)NC(=O)Cc1ccc2cn[nH]c2c1` (stereo unspecified), for which the “% Inhibition” value was 5% and the Z score was -0.89.

For `COc1ccc(CC(=O)NCCOCCO)cc1`, the “% Inhibition” value is recorded as 33% and the Z score is reported as -4.21.

`CC(C)C(=O)NCCNc1nc2c(c(=O)[nH]1)Cc1ccccc1OC2`: the “% Inhibition” value was -16% and the Z score worked out at 2.13.

Consider `Cc1cc(C)c(CN(C)[C@@H](C)C(=O)N(C)C)cc1C`, for which the “% Inhibition” value is -4% and the Z score is 0.77.

Consider `CCOC(=O)C1(C(=O)NCc2cc(C)on2)CCCC1`, for which the “% Inhibition” value is reported as 7% and the Z score was -0.84.

As for `c1cc(CNC2CC3CCC2C3)ccn1` (stereo unspecified), the “% Inhibition” value is reported as -13% and the Z score came to 2.45.

Turning to `C[C@H](NC(=O)c1ccc2c(c1)CCCC2=O)c1cncs1`, the “% Inhibition” value is on record as -17% and the Z score was 1.69.
